Measured values as given in the BET-seq Pho4 binding data (Le et al. 2018).
This is one part of the list. These are noisy estimates, calculated here from bound and input reads.

Each sequence was assayed against T1, Pho4 (S. cerevisiae) (UniProt P07270) (assay: relative binding free energy (BET-seq); higher = weaker binding). Settings: reference: library average.
T1 sequence: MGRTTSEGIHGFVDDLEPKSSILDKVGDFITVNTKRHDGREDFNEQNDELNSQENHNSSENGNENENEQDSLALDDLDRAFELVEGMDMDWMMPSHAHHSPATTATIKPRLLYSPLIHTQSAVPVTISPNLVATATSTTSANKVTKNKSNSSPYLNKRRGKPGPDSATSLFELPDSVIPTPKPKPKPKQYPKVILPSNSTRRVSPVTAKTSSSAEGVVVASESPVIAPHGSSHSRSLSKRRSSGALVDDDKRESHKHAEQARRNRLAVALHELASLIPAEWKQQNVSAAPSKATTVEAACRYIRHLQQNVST

Sequence	relative binding free energy [kcal/mol]
ATACTCACGTGTTGTG	0.24
TACTGCACGTGGGAGG	-0.06
CTGGGCACGTGGGTTT	-0.14
CTGGGCACGTGTATGG	0.02
AGTAACACGTGCGGGG	-0.02
TGGGTCACGTGCCGGA	0.01
GTGGTCACGTGGATCG	0.09
GAGGGCACGTGAATAG	0.3
CCTGTCACGTGTGAGT	0.11
ATGGCCACGTGGAAGG	-0.04
TTGGCCACGTGGGTAT	-0.26
ATGGTCACGTGGCTTA	0.03
ATACGCACGTGGGTGT	-0.45
GTCTTCACGTGGCAGG	0.29
GGGGACACGTGTGTCA	0
CTGAGCACGTGTGTAT	-0.02
TTGCGCACGTGCGGGT	-0.09
TGTGACACGTGCTCTT	0.01
GTAGTCACGTGAGCTT	0.38
TTTGGCACGTGGTGAC	-0.23
TGTTACACGTGGCGGA	0.07
TTTCTCACGTGTGTCA	0.16
GTTTACACGTGGACTT	0.14

Sequence	relative binding free energy [kcal/mol]
GGAGCCACGTGGGGTA	-0.35
TGTTTCACGTGAAGTA	0.36
TTAGGCACGTGCTGAG	-0.21
GTAGTCACGTGGAAAG	0.21
TGTAGCACGTGTGGGG	0.01
ACAGCCACGTGGGTGG	-0.25
CTCTGCACGTGAGTGG	0.21
TTAAGCACGTGGTCTG	-0.23
TGAAGCACGTGGTATA	-0.18
GGTTTCACGTGTTAGG	0.34
ATCGACACGTGGGTGG	-0.19
TGTTACACGTGTCTTG	0.11
ATTGCCACGTGTGTGA	-0.1
GGGGACACGTGCGGCT	-0.02
AGTGGCACGTGACGGT	-0.06
TTTGCCACGTGTTCGG	-0.08
TGAATCACGTGCAGTT	0.24
TAGTGCACGTGGGTCA	-0.23
CATATCACGTGTGGGG	0.3
GTGTTCACGTGGGAAG	0.29
TCGGGCACGTGGTCGA	-0.23
TCTAGCACGTGGTTAT	-0.17
TTTGCCACGTGCGTGA	-0.12

Sequence	relative binding free energy [kcal/mol]
AGTTGCACGTGCATGT	-0.13
CTGTACACGTGACGGG	0.21
TTTTACACGTGACTTT	0.2
TTGATCACGTGGTGCC	0.16
AATGTCACGTGAGTCG	0.1
CAGGGCACGTGATAGG	-0.09
AATTGCACGTGAGGGT	0.24
ATTAGCACGTGTAGTA	0.04
TCAGGCACGTGAGGCG	0.07
AAATGCACGTGTGGTG	0.04
TAGGACACGTGTCGTG	-0.05
AGGCGCACGTGCGGGG	-0.28
AGTTTCACGTGCTAGT	0.21
GAAAGCACGTGGGATT	-0.06
GTGTCCACGTGTTGTT	0.05
GCGTGCACGTGGGTTC	0.02
CTATTCACGTGCTTGT	0.17
GAAGTCACGTGGGGTT	0.03
TGGTGCACGTGTCGTT	0.08
GTAAGCACGTGGTGCG	-0.08
AGAGTCACGTGCGTTG	0.11
CTGTCCACGTGGGAGG	-0.09
ATGCGCACGTGTCAGG	-0.01

Sequence	relative binding free energy [kcal/mol]
GGTGTCACGTGGGAAC	0.14
GCGAGCACGTGTTGGT	0.08
TTCCACACGTGGTGTA	0.09
GTGATCACGTGATTGT	0.48
AGGACCACGTGGGTTT	-0.05
GGTGCCACGTGGAGGC	-0.11
GTGGCCACGTGAGCTG	0.26
GGGTGCACGTGTCGAG	0.07
GTGTACACGTGGTTCT	0.04
GGAGTCACGTGTTCGA	0.22
ATGTGCACGTGAACTT	0.14
GGTGTCACGTGGAAGC	0.17
TTTTACACGTGGTGCT	0.08
TGGTACACGTGGATGG	0.05
GTGGGCACGTGGGGGC	-0.14
GTGAACACGTGTAATA	0.16
ATTGTCACGTGCTATA	-0.11
TAGTCCACGTGTTGTG	-0.03
TCGGGCACGTGGCAGT	-0.09
GACGGCACGTGGGGGT	-0.09
GAAGTCACGTGTTTTT	0.12
GTTAACACGTGTATGC	0.06
CGGTTCACGTGGGCAG	0.17

Sequence	relative binding free energy [kcal/mol]
TTTCACACGTGGGATT	0.02
AGCTGCACGTGATTGA	0.2
CAAATCACGTGTTGTT	0.08
ATATTCACGTGTTTTC	0.22
TTAGTCACGTGCTCTG	0.08
AGTTTCACGTGGTGTG	0.24
ATGCTCACGTGAGGGA	0.33
TGCTTCACGTGGGTGG	0.13
CTTCGCACGTGTTTTA	0.06
CAAAGCACGTGGGGGA	-0.22
AAAGACACGTGTAGAG	0.24
GATTACACGTGGGCGG	0.04
TGTAGCACGTGTAGGC	-0.17
ATTTTCACGTGATACT	0.26
ATTTTCACGTGAATGG	0.37
GATGACACGTGTTGTA	-0.03
CAGATCACGTGTGTGT	0.17
TGATGCACGTGGTGGC	-0.12
ATGCGCACGTGGTGTA	-0.25
TAATACACGTGGTTAG	-0.01
TGGACCACGTGCGTGG	-0.12
CTGTGCACGTGGAGGC	-0.21
GCGAGCACGTGTTTGG	-0.11
